About 2,200 (0.71%) of roughly 310,000 compounds showed an effect of 50% or more. The effect is printed as a negative number. Some of the results follow.
Target: human ether-à-go-go-related gene (hERG) potassium channel (human, UniProt Q12809)
Assay: primary screen, population patch clamp on CHO cells stably expressing hERG

Sequence of human ether-à-go-go-related gene (hERG) potassium channel (Q12809 whole entry, looked up): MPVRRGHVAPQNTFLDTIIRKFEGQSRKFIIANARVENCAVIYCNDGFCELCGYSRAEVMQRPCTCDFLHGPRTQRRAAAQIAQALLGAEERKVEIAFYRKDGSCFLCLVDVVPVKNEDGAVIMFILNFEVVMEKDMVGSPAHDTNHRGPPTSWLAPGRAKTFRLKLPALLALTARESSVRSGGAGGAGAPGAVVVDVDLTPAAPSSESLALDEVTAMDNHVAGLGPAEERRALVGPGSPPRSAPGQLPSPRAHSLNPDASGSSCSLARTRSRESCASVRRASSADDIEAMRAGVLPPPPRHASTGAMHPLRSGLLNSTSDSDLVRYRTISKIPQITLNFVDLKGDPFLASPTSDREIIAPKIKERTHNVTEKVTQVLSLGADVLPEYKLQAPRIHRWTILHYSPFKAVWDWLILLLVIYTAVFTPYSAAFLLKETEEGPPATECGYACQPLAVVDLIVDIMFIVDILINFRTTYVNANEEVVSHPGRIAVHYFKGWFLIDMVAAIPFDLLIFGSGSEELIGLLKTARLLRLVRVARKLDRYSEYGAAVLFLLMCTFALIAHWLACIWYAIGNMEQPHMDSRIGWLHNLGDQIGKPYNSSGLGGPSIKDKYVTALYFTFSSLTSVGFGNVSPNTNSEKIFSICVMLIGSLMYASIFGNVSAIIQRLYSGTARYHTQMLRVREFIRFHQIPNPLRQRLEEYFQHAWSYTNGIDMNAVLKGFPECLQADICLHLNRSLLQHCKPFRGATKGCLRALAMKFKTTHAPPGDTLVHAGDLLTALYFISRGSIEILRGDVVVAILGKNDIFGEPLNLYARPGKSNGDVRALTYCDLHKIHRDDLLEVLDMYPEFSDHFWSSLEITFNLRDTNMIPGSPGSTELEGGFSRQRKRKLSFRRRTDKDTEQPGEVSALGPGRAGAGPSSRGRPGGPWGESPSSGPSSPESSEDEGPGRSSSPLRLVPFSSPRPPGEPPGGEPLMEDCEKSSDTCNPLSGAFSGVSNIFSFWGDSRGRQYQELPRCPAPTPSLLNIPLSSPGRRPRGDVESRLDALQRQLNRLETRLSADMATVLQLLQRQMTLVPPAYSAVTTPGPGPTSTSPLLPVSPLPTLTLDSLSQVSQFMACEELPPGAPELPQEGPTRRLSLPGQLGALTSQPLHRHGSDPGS

Row | Compound | hERG current change (%, negative = inhibition) at 1uM
1 | Cc1cc(C)nc(SCCc2ccncc2)n1.Cl | 13.4%
2 | CCNC(=S)NNC(=O)c1csc2c1CCC(C)C2 (stereo not shown) | 5.79%
3 | O=C(NCC1CCCO1)C1CCC(=O)N1Cc1ccc(F)cc1 (stereo not shown) | 11.3%
4 | COc1cc2c(cc1OC)C(c1cccc([N+](=O)[O-])c1)N(C(=O)c1ccc(F)cc1)CC2 (stereo not shown) | 9.92%
5 | COC(=O)Cc1ccc(NC(=O)c2cccs2)cc1 | 12.6%
6 | Cc1ccccc1OCC(=O)OCC(=O)Nc1cc(C(F)(F)F)ccc1N1CCOCC1 | 18.4%
7 | O=[N+]([O-])c1ccc(-c2csc(N/N=C/c3cccnc3)n2)cc1 | 23.3%
8 | COc1ccc(C2=NOC(C(=O)Nc3cc(C)nn3-c3ccccc3)C2)cc1OC (stereo not shown) | -2.85%
9 | COc1ccccc1-c1coc2c(CN3CCCC(C)C3)c(O)ccc2c1=O (stereo not shown) | 8%
10 | CC1(C)OC(C(N)=O)C(C(N)=O)O1 (stereo not shown) | -7.88%
11 | CCN(CC)S(=O)(=O)c1cccc(C(=O)Nc2cc(C)cc(C)c2)c1 | 17.1%
12 | COc1ccc(OCc2cc(=O)[nH]c3ccccc23)cc1 | 7.59%
13 | CC(C)(C)c1nnc(NC(=O)c2ccc(Cl)nc2)s1 | -2.3%
14 | COc1ccc(O)c(CN2CCCC(C(=O)Nc3cccc(-n4cccn4)c3)C2)c1 (stereo not shown) | 5.32%
15 | CC1CCCCN1S(=O)(=O)c1ccc2c(c1)CCN2C(=O)C1CCC1 (stereo not shown) | 6.45%
16 | O=C1c2ccccc2C(=O)N1CCn1nc(Cl)nc1Cl | 3.34%
17 | CC(C)CCCCCCNC(=S)Nc1ccc(S(=O)(=O)N2CCOCC2)cc1 | 12.8%
18 | O=C(CN1C(=O)c2ccccc2C1=O)Nc1nc(-c2cccc([N+](=O)[O-])c2)cs1 | 5.08%
19 | Nc1nnc(SCC(=O)Nc2ccc(Cl)c(C(=O)O)c2)s1 | 16.6%
20 | Cc1ccccc1CSc1nnc(-c2ccccc2)c(=O)[nH]1 | 8.62%
21 | COc1ccc(-c2c(C(C)=O)c(C)nc3sc4c(=O)[nH]nnc4c23)cc1 | 9.43%
22 | Cc1cccc(-n2cc(C#N)c(=O)[nH]c2=O)n1 | 15.8%
23 | COC(=O)c1cn(C(=O)c2cc(OC)cc(OC)c2)c2ccccc12 | 12.7%
24 | COCCn1c(=O)[nH]c2cc(C(=O)NCC3CCCO3)ccc2c1=O (stereo not shown) | 2.65%
25 | O=c1c2c3c(sc2nc(NCCOCCO)n1Cc1ccco1)CCCCC3 | 2.13%
